# Laboratory results from PubChem BioAssay AID1347073 (National Center for Advancing Translational Sciences (NCATS), 2019).
# The campaign covered roughly 45,000 compounds. About 200 (0.44%) were called active. Roughly 7% stayed inconclusive and do not appear here. Calls come from the whole dose curve; as a rule, active = well fitted activation curve with a large enough effect; inconclusive = small, poorly fitted or top-dose-only effect; inactive = no such curve, though single readings can be large or run the other way. The list shows a part of the results.
# Experiment: qHTS of TDP-43 Inhibitors: NCGC Sytravon Library Screen; note: 0% is about no effect; nearly all actives have a fitted effect of over 55% in size
# Settings: yeast TDP-43 toxicity rescue, BacTiter-Glo growth, 24 h; series mostly up to 46.1 µM; growth rescue (activation): at the top concentration
# Outline: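 TDP-43-expressing yeast, pregrown in raffinose, seeded at OD600 0.02 in galactose medium with compound for 24 hr at 30 deg C. Growth read by BacTiter-Glo luminescence, so rescue of toxicity appears as activation.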
row,Compound,growth rescue (activation)
1,Cc1cc(Br)ccc1NC(=O)CCS(=O)(=O)c1cccc2nonc12,inactive: 5.57%
2,CC1(c2ccc(Cl)cc2)NC(=S)N2C1NC(=S)N2c1ccccc1 (stereo not given),inactive: -3.25%
3,CCc1nc2ccc(C(=O)N(C)CCCN(C)C)cn2c1N(C)C(=O)C1CCCCC1,inactive: -6.32%
4,Brc1ccc(-c2csc(NC3=NCCCCC3)n2)cc1,inactive: -1.6%
5,Cc1ccc(N(C)S(=O)(=O)c2cccc(C(=O)OCC(=O)c3c(N)n(C)c(=O)n(C)c3=O)c2)cc1,inactive: -6.28%
6,Cc1cc(C=O)c(C)n1-c1ccc(N2CCCC2)c([N+](=O)[O-])c1,inactive: -6.69%
7,CC(=O)NC(c1ccccc1)c1nc(-c2cccc(CO)c2)cs1 (stereo not given),inactive: 23.9%
8,CN(C)c1ccc(C(=O)OCC(=O)N2CCCC2)cc1,inactive: -5.95%
9,CC(C)(C)c1ccc(C(=O)NCCCn2ccnc2)cc1,inactive: -1.08%
10,CC(C)CCNC(=O)C1CCCN(S(=O)(=O)c2ccc(-n3cnnn3)cc2)C1 (stereo not given),inactive: -5.43%
11,CC(/C=C/c1ccco1)=N\NC(=O)COc1ccc(C)c(C)c1,inactive: 6.36%
12,Cc1cccc(-n2cc(-c3ccccc3)[nH]c2=S)c1,inactive: 18.4%
13,CCN(CC)S(=O)(=O)c1ccc(O)c(C(=O)OCC(=O)NC23CC4CC(CC(C4)C2)C3)c1,inactive: 9.95%
14,COc1ccc(Cl)c(-c2cc(C(=O)Nc3ccc(C)c(NS(C)(=O)=O)c3)[nH]n2)c1,inactive: 15.3%
15,CC(NC(=O)/C(C#N)=C/c1ccc(N2CCOCC2)cc1)c1ccccc1 (stereo not given),inactive: 12.5%
16,O=C(COC(=O)/C=C/c1cccs1)NC1CC1,inactive: -7.73%
17,CCn1c(CN2CCOCC2)nnc1SCC(=O)Nc1ccc(C)cc1,inactive: 1.07%
18,CC(C)(O)C#Cc1ccc(CN2CCN(Cc3ccsc3)C(CCO)C2)cc1 (stereo not given),inactive: 2.67%
19,Cc1ccc(N2Cc3ccccc3C2=S)cc1,inactive: 31.7%
20,CCCc1c(O)nc(SCC(=O)O)[nH]c1=O,inactive: -4.31%
21,O=C(NC1CCN(S(=O)(=O)c2ccccc2C(F)(F)F)CC1)c1ccco1,inactive: 16.3%
22,COc1ccc(OC)c(NC(=O)C(=O)NCCC2=CCCCC2)c1,inactive: -16.3%
23,CCC(C)c1ccccc1NC(=O)CN(C)CC(=O)Nc1ccccc1SC (stereo not given),inactive: 4.38%
24,COc1cccc(-c2nc3c(c(=O)[nH]c(=O)n3Cc3ccccc3)n2CCO)c1OC(F)F,inactive: -6.31%
25,O=C(CNC(=O)c1cccc(Br)c1)N/N=C/c1ccc2c(c1)OCO2,inactive: 2.12%
26,COc1cccc(OC)c1OCCOCCN1CCN(C)CC1,inactive: -2.87%
27,CN(C)c1cccc(CNC(=O)c2csc(COCCO)n2)c1,inactive: 6.6%
28,COc1ccccc1C(O)c1ncc(-c2ccc(Cl)cc2)[nH]1 (stereo not given),inactive: 3.8%
29,CC1(C)CC(=O)C(N=Nc2c(Cl)cc(Cl)cc2Cl)=C(O)C1,inactive: -10.3%
30,CC1=C(C#N)C(c2ccccc2O)C(C#N)=C(C)N1,inactive: 3.17%
